# Test results: PubChem BioAssay AID624417 (National Center for Advancing Translational Sciences (NCATS), 2012)
# Out of some 410,000 compounds screened, about 6,400 (1.6%) were called active. Inconclusive means that the source gave no clear call. Such entries were picked first, then a sample of the others. Calls come from the whole dose curve; as a rule, active = well fitted inhibition curve with a large enough effect; inconclusive = small, poorly fitted or top-dose-only effect; inactive = no such curve, though single readings can be large or run the other way. Potencies of inconclusive entries are left out as doubtful fits.
# Molecular target: Glucagon-like peptide 1 receptor (Homo sapiens) (UniProt P43220)
# Test: qHTS of GLP-1 Receptor Inverse Agonists (Inhibition Mode); note: nearly all actives have a fitted effect of over 55% in size
# Details: HEK293 GLP-1R CRE-luciferase, luminescence, 24 h, GLP-1R form is constitutively active; series mostly up to 38.3 µM
# How it was run: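 Luminescence readout: a drop in cAMP-driven luciferase signal flags inverse agonism at a constitutively active GLP-1R stably expressed in HEK293. Compound exposure lasted 24 hr at 37 deg C, 5% CO2.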
# Potency is the fitted concentration of half-maximal effect; tags give direction and shape of the fitted curve.
# Sequence of UniProt P43220 (P43220 whole entry, looked up): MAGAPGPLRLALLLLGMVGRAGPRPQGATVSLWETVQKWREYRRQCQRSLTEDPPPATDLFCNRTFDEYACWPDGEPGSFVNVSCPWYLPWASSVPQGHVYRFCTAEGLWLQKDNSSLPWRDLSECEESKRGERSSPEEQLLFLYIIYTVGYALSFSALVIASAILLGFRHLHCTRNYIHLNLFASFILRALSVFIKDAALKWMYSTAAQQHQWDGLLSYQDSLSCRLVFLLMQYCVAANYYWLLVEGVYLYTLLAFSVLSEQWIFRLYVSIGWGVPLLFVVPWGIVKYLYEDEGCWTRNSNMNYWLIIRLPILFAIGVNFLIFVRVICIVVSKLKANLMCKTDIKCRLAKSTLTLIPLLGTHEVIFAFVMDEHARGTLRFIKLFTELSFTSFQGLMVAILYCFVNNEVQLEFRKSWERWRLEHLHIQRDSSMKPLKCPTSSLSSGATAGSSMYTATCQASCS
row,SMILES,Potency
1,O=C1c2cccc(OCc3ccc(F)cc3)c2CCN1Cc1ccccc1,"inconclusive [inhibitor, partial curve, poor fit]"
2,CCOc1ccc(N(CC(=O)NCCc2ccc(C)cc2)S(=O)(=O)c2c(C)noc2C)cc1,"inconclusive [inhibitor, partial curve, poor fit]"
3,Cc1ccc(S(=O)(=O)N2C[C@H]3C(=O)C[C@@H](c4ccccc4F)N(S(=O)(=O)c4ccc(C)cc4)[C@H]3C[C@H]2c2ccccc2)cc1,"inconclusive [inhibitor, partial curve]"
4,COC(=O)c1c(NC(=O)Cc2ccccc2)sc2c1CCN(C(C)C)C2,inactive
5,COc1ccc(-n2c(C)cc(/C=C3/SC(=S)N(C)C3=O)c2C)cc1,inactive
6,COc1ccccc1CNC(=O)c1ccc(C)s1,"inconclusive [inhibitor, single point]"
7,Cn1c(=O)c2cc(NC(=S)NC3CCCCC3)ccc2n1C/C=C/c1ccccc1,inactive
8,CCOC(=O)c1ccc(NS(=O)(=O)c2cc(-c3onc(C)c3C)ccc2C)cc1,inactive
9,Cc1cccc(CNC(=O)CSCc2cnn(-c3ccccc3)c2-n2cccc2)c1,"inconclusive [inhibitor, single point]"
10,CC(C)C(NC(=O)c1cccc(S(=O)(=O)N2CCOCC2)c1)C(=O)NCc1ccc(Cl)cc1 (stereo not drawn),"inconclusive [inhibitor, single point]"
11,Nc1[nH]c(C(=O)c2ccccc2)c(-c2ccc([N+](=O)[O-])cc2)c1C(=O)NCCc1c[nH]c2ccccc12,"inconclusive [inhibitor, single point]"
12,O=C(NCC(=O)N1CCN(c2cccc(Cl)c2)CC1)c1ccc(Br)o1,"inconclusive [inhibitor, single point]"
13,O=C(Nc1ccccc1)Nc1ccc2ccccc2c1,"inconclusive [inhibitor, partial curve]"
14,FC(F)(F)c1cc(Nc2ccccc2)nc(-c2ccccn2)n1,active: 3.55 µM
15,CCOc1ccc(NC(=O)c2ccccc2NS(=O)(=O)c2ccc(F)cc2)c([N+](=O)[O-])c1,"inconclusive [inhibitor, partial curve]"
16,CN1/C(=C\C(=O)COC(=O)c2ccc(O)cc2)C(C)(C)c2ccccc21,"inconclusive [inhibitor, single point]"
17,Cc1cc(=O)n2[nH]c(C(F)(F)F)c(-c3ccccc3)c2n1,"inconclusive [inhibitor, single point]"
18,COc1ccc(-c2nn(-c3ccccc3)cc2/C=N/NC(=O)c2cccc(S(=O)(=O)Nc3ccccc3Cl)c2)cc1,"inconclusive [inhibitor, partial curve, poor fit]"
19,CCc1ccccc1NC(=O)Nc1ccc(F)cc1,"inconclusive [inhibitor, single point]"
20,Cc1ccccc1Oc1nc2ccccc2n2cnnc12,inactive
21,COc1ccc(OCc2nc3c4c(-c5ccccc5)c(-c5ccccc5)oc4ncn3n2)cc1,inactive

row,SMILES,Potency
1,COc1cccc(C(=O)c2cn(CC(=O)NCc3ccccc3)c3nc(C)ccc3c2=O)c1,inactive
2,COc1ccc(CC(=O)Nc2cccc(-c3nnc(-c4cccc(C)c4)o3)c2)cc1OC,inactive
3,O=C(CCCCCNC(=O)N1CCn2c1nc1ccccc12)NCc1ccccc1,"inconclusive [inhibitor, single point]"
4,COc1ccc(OC)c(S(=O)(=O)NCc2cccn2Cc2cccc(C)c2)c1,"inconclusive [inhibitor, single point]"
5,CC1=C(C(=O)Nc2cccnc2)C(c2ccc(Cl)cc2)n2nc(-c3ccccc3)nc2N1 (stereo not drawn),"inconclusive [inhibitor, partial curve, poor fit]"
6,CC(Sc1nnc(CN2CCCC2)n1Cc1ccccc1)C(=O)Nc1ccc(F)cc1Cl (stereo not drawn),active: 5.62 µM
7,Clc1ccc(OCCN2CCN(c3ncnc4sccc34)CC2)cc1,"inconclusive [inhibitor, single point]"
8,CC(C)COc1ccc(CNC(=S)Nc2ccccc2)cc1Cl,"inconclusive [inhibitor, single point]"
9,C=CCOc1ccccc1/C=N/NC(=O)c1ccc(Cl)cc1Cl,"inconclusive [inhibitor, partial curve, poor fit]"
10,CCCCCCC1C(C#N)=C(N)OC2=C1C(=O)CCC2 (stereo not drawn),"inconclusive [inhibitor, single point]"
11,Cc1ccccc1-c1csc(C(C)(O)c2ccc(F)c(F)c2)n1 (stereo not drawn),"inconclusive [inhibitor, single point]"
12,COc1cccc(C(=O)Nc2cccc3ccccc23)c1OC,"inconclusive [inhibitor, single point]"
13,O=C(CNS(=O)(=O)c1ccc2ccccc2c1)Nc1ccc(F)c(F)c1F,"inconclusive [inhibitor, partial curve, poor fit]"
14,CCOc1ccc(OCCSc2nnnn2C2CCCCC2)cc1,"inconclusive [inhibitor, single point]"
15,CC(NC(=O)COC(=O)c1ccc(OCC2CCCO2)cc1)c1ccccc1Cl (stereo not drawn),"inconclusive [inhibitor, single point]"
16,Cc1cc(C)n(S(=O)(=O)c2ccc3ccccc3c2)n1,"inconclusive [inhibitor, single point]"
17,CCOc1ccc(NC(=O)Cn2c(C)cc3ccccc3c2=O)cc1,inactive
18,COc1ccccc1NC(=O)CN1CCCN(S(=O)(=O)c2ccc(Br)cc2)CC1,"inconclusive [inhibitor, single point]"
19,O=C(CCCc1ccccc1)Nc1ccnn1C1CCN(Cc2ccccc2F)CC1,"inconclusive [inhibitor, partial curve, poor fit]"
20,Cc1ccc(Cl)cc1Nc1nc(-c2sc(NC(=O)c3ccco3)nc2C)cs1,"inconclusive [inhibitor, partial curve, poor fit]"
21,O=C1CCCCCCCCCC/C(=N\O)CCCO1,"inconclusive [inhibitor, partial curve, poor fit]"

row,SMILES,Potency
1,COc1ccc(NC(=O)c2cccn2-c2nnc(N3CCCCC3)s2)cc1Cl,"inconclusive [inhibitor, single point]"
2,Cc1ccc(NC(=O)CCNC(=O)c2ccc(Cl)cc2)cc1C,"inconclusive [inhibitor, partial curve, poor fit]"
3,Cc1sc(NC(=O)Cc2ccc3c(c2)OCO3)nc1-c1ccc2c(c1)CCN2C(=O)c1ccccc1F,"inconclusive [inhibitor, full curve, poor fit]"
4,Cc1occc1C(=O)Nc1ccc(OCc2ccccc2)cc1,"inconclusive [inhibitor, partial curve]"
5,Cc1cc(C)c(C)c(S(=O)(=O)N2CCC(C(=O)NCc3cccs3)CC2)c1C,"inconclusive [inhibitor, single point]"
6,CC(Nc1ccc(S(=O)(=O)N2CCN(C)CC2)cc1[N+](=O)[O-])c1ccccc1 (stereo not drawn),"inconclusive [inhibitor, single point]"
7,Cc1sc(NC(=O)c2ccco2)c(C(Nc2ccccn2)c2ccccc2)c1C (stereo not drawn),"inconclusive [inhibitor, partial curve, poor fit]"
8,CCCCN=c1scc(-c2ccc3c(c2)NC(=O)CO3)n1N=C1CCCC1,"inconclusive [inhibitor, single point]"
9,COC(=O)CCN(c1ccccc1)S(=O)(=O)c1cc(-c2cc(C)no2)ccc1C,"inconclusive [inhibitor, single point]"
10,Cc1ccc(C)c(CC(=O)N2CCCC(c3cc(C(=O)Nc4ccc5c(c4)OCO5)no3)C2)c1 (stereo not drawn),"inconclusive [inhibitor, full curve, poor fit]"
11,COC(=O)c1cc(C(=O)c2ccc(C(C)(C)C)cc2)c[nH]1,"inconclusive [inhibitor, single point]"
12,COC(=O)c1ccccc1NC(=O)c1ccc2c(c1)CCN2S(C)(=O)=O,inactive
13,COc1cc(Nc2ncc3c(n2)CCN(Cc2cc(Br)cs2)C3)cc(OC)c1,"inconclusive [inhibitor, single point]"
14,C[C@@H](NC(=O)c1coc(=O)c(Br)c1)c1ccccc1,"inconclusive [inhibitor, single point]"
15,O=C(Nc1ccc(F)cc1)c1cccc(C(=O)Nc2ccc(F)cc2)c1,inactive
16,Cc1ccc(OCc2cc(C(=O)N3CCN(C)C[C@@H]3c3ccccc3)no2)cc1C,"inconclusive [inhibitor, partial curve, poor fit]"
17,Cc1cc(C)cc(NS(=O)(=O)c2ccc3[nH]cc(C(=O)N(C)Cc4ccccc4)c(=O)c3c2)c1,"inconclusive [inhibitor, single point]"
18,COc1ccc(OC)c(NS(=O)(=O)c2ccc(-c3coc(C)n3)cc2)c1,"inconclusive [inhibitor, single point]"
19,O=C(NCc1ccccc1)c1nn(-c2ccccc2)nc1CO,inactive
20,O=C(NCc1ccc(F)cc1)c1cc2c(=O)n3ccccc3nc2s1,inactive
21,Cc1ccc(NC(=O)CSc2ccc(Br)cc2)cc1S(=O)(=O)N1CCOCC1,"inconclusive [inhibitor, single point]"
